Reference: the supplement of paper PMC12217912
This is one part of the list. Sequences were assembled here from the parent chain. Values near 0.05 are background.

B1: TEV protease; numbered along this chain (parent)
chain: MGESLFKGPRDYNPISSSICHLTNESDGHTTSLYGIGFGPFIITNKHLFRRNNGTLVVQSLHGVFKVKDTTTLQQHLVDGRDMIIIRMPKDFPPFPQKLKFREPQREERICLVTTNFQTKSMSSMVSDTSCTFPSGDGIFWKHWIQTKDGQCGSPLVSTRDGFIVGIHSASNFTNTNNYFTSVPKNFMELLTNQEAQQWVSGWRLNADSVLWGGHKVFMVKPEEPFQPVKEATQL

Variants of: B1
Experiment: raw area under fraction-flipped curve 0-4 h after induction (AUC4h, not background-subtracted), DNA-recorder readout of cleavage of the substrate (dimensionless); higher = more cleavage of the substrate by the protease variant
Conditions: temperature: 34 °C; time window: 0-4 h after rhamnose induction
Experimental: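 In vivo DNA recorder in E. coli TOP10(DE3) ΔrhaA at 34 °C. Each TEVp single-site mutant (parent TEVp 0) is paired with a single-site variant of the 7-mer TEVs (canonical ENLYFQ|S). The substrate sits between flexible linkers in a Bxb1-sfGFP-TEVs-SsrA fusion, so cleavage stabilises Bxb1 and speeds flipping of a recombination array, read by NGS. The value is the raw area under the fraction-flipped curve over 0-4 h after rhamnose induction (AUC4h), with ≥20 reads per time point. It is not background-subtracted; inactive controls average about 0.047.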
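Also: Bxb1 expression induced with 0.2% (w/v) L-rhamnose at OD600 near 0.5, cultures sampled hourly, flipped fraction per protease–substrate barcode pair counted by paired-end Illumina sequencing.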

Variant | area with substrate ENLYFQA | area with substrate ENLYFQK | area with substrate ENLYFQM | area with substrate ENLYFQP | area with substrate ENLYFQQ | area with substrate ENLYFQS | area with substrate ENLYFQC | area with substrate ENLYFQE | area with substrate ENLYFQG | area with substrate ENLYFQI | area with substrate ENLYFQL | area with substrate ENLYFQN | area with substrate ENLYFQR | area with substrate ENLYFQW | area with substrate ENLYFQD | area with substrate ENLYFQH | area with substrate ENLYFQT | area with substrate ENLYFQV | area with substrate ENLYFQF | area with substrate ENLYFQY
T176R | 0.0799 | 0.0597 | 0.068 | 0.0543 | 0.0445 | 0.0759 | – | – | – | – | – | – | – | – | – | – | – | – | – | –
A232C | 0.0995 | – | – | – | – | 0.0956 | 0.0926 | 0.0419 | 0.0927 | 0.0589 | 0.0569 | 0.0759 | 0.0449 | 0.0684 | – | – | – | – | – | –
A232M | 0.0604 | – | 0.0984 | 0.0623 | – | 0.104 | – | – | 0.123 | 0.0393 | 0.0805 | 0.0741 | – | 0.0632 | 0.0793 | 0.0866 | 0.0682 | 0.0624 | – | –
A232S | 0.105 | 0.0622 | 0.114 | 0.0604 | – | 0.115 | 0.134 | – | – | – | 0.0637 | – | – | 0.0585 | 0.0698 | – | 0.069 | – | – | –
A232H | 0.122 | – | – | – | – | 0.109 | – | – | 0.125 | 0.0796 | 0.0642 | 0.0903 | 0.0719 | 0.0639 | – | – | – | – | – | –
A232K | 0.112 | – | 0.115 | 0.0529 | 0.0763 | 0.111 | 0.143 | – | – | 0.0535 | 0.0764 | 0.0701 | 0.0697 | 0.0396 | – | – | 0.0648 | – | 0.097 | –
A232V | 0.112 | – | 0.1 | – | – | 0.106 | – | – | – | – | – | 0.0702 | – | – | – | – | – | 0.0116 | – | –
A232G | 0.1 | – | – | 0.0529 | – | 0.115 | 0.133 | 0.0684 | 0.117 | – | – | 0.0756 | – | 0.0865 | 0.078 | 0.0844 | – | – | 0.101 | 0.101
P184C | 0.103 | 0.0701 | 0.0737 | – | – | 0.0987 | 0.108 | – | 0.109 | 0.0672 | 0.0716 | – | – | 0.0532 | – | – | 0.0682 | 0.0658 | 0.0597 | –
P184S | 0.105 | 0.0658 | 0.0683 | 0.0631 | 0.0685 | 0.0835 | 0.102 | 0.0984 | 0.0899 | 0.0669 | 0.0568 | 0.0869 | 0.0601 | 0.0718 | – | – | 0.0577 | 0.0628 | 0.0737 | 0.0607
P184N | 0.0866 | 0.0667 | 0.0788 | 0.0609 | 0.0585 | 0.0753 | 0.0818 | – | 0.0755 | 0.056 | 0.0592 | 0.0574 | 0.0514 | 0.0519 | 0.0663 | – | 0.0628 | 0.0581 | 0.0581 | 0.0614
P184G | 0.0947 | 0.0533 | 0.0617 | – | – | 0.0854 | 0.106 | – | – | – | 0.0562 | – | 0.0714 | 0.0575 | 0.069 | 0.0778 | – | – | – | 0.0796
P184I | 0.0724 | 0.0534 | 0.0688 | 0.0529 | 0.063 | 0.0766 | 0.0736 | – | 0.0833 | 0.0512 | 0.0552 | 0.063 | 0.0531 | 0.0624 | – | – | 0.0596 | 0.0715 | 0.0579 | 0.0585
S32I | – | – | 0.0963 | 0.056 | – | 0.107 | 0.106 | – | 0.0876 | 0.061 | 0.058 | 0.108 | 0.0522 | 0.0617 | – | 0.0823 | 0.0583 | – | 0.0399 | 0.0651
K216H | 0.102 | – | 0.0945 | – | – | 0.0994 | 0.102 | – | 0.101 | – | 0.0749 | 0.0762 | 0.0737 | – | 0.0838 | 0.0759 | 0.0658 | 0.0663 | – | –
K216R | 0.108 | – | – | – | – | 0.0858 | – | – | 0.104 | – | – | – | – | – | 0.0758 | – | – | – | – | –
Q197W | 0.0818 | 0.0641 | 0.0891 | – | – | 0.0866 | 0.0998 | 0.0688 | 0.0789 | 0.0563 | – | 0.0625 | 0.059 | 0.0764 | 0.0559 | 0.0584 | 0.0681 | 0.0487 | 0.0619 | 0.0729
D208N | 0.0821 | 0.0629 | 0.0706 | – | – | 0.091 | 0.0753 | 0.0163 | 0.0692 | – | 0.0573 | 0.0647 | – | 0.0466 | 0.0628 | – | 0.0858 | 0.0537 | – | –
L48F | – | 0.0636 | 0.102 | – | – | 0.105 | 0.108 | – | 0.117 | – | 0.0682 | 0.0698 | 0.0629 | 0.0787 | – | 0.0935 | 0.0758 | 0.0636 | – | 0.0796
L48A | – | 0.0628 | 0.0681 | 0.0515 | 0.0652 | 0.0866 | 0.0675 | – | 0.0711 | 0.0615 | 0.0559 | 0.0558 | 0.0639 | 0.0464 | 0.0673 | 0.0745 | 0.0641 | 0.0633 | – | 0.0705
N24D | – | 0.0587 | 0.083 | – | – | 0.0756 | 0.0667 | – | 0.0662 | 0.0648 | 0.0565 | 0.0621 | 0.0864 | 0.0483 | 0.089 | 0.0856 | 0.0596 | 0.0553 | 0.0628 | 0.0659
F226C | 0.1 | 0.0573 | 0.0964 | – | – | 0.111 | 0.121 | – | 0.0659 | 0.0459 | 0.0783 | 0.0931 | – | 0.0611 | 0.0674 | – | 0.0561 | – | – | 0.074
P222H | 0.0814 | 0.0469 | 0.0604 | 0.0419 | – | 0.0928 | 0.124 | 0.0957 | 0.09 | 0.0571 | 0.0734 | 0.0741 | 0.0564 | 0.0733 | 0.0671 | 0.081 | – | 0.0611 | 0.0661 | 0.0686
G8A | – | 0.0618 | 0.0874 | – | – | 0.101 | 0.117 | – | – | – | – | – | – | – | – | – | 0.0592 | – | – | –
G8S | – | 0.076 | – | 0.0637 | – | 0.101 | 0.0962 | – | 0.0755 | – | 0.0432 | – | – | 0.0687 | – | – | – | – | 0.0691 | –
G8F | – | – | – | 0.0764 | – | 0.091 | 0.121 | – | – | – | 0.07 | 0.0846 | – | 0.007 | – | 0.0983 | – | 0.0521 | – | 0.0917
G8K | – | – | 0.102 | – | – | 0.104 | 0.122 | – | 0.0991 | 0.0587 | 0.0565 | – | – | – | 0.0868 | – | 0.0572 | – | – | –
G8D | – | – | 0.0687 | 0.0487 | – | 0.101 | 0.0939 | – | 0.0864 | – | – | – | 0.0568 | – | – | – | – | – | – | –
K221R | 0.124 | 0.074 | 0.0833 | 0.0523 | 0.0727 | 0.105 | 0.0928 | 0.0743 | 0.0819 | 0.0643 | 0.0603 | 0.0704 | 0.0616 | 0.0733 | 0.0801 | 0.0793 | 0.0508 | 0.0395 | 0.0656 | 0.0634
